In article PMC7819943, “Rice protein-binding microarrays: a tool to detect cis-acting elements near promoter regions in rice” one finds binding signal data, which are given here for 54 sequences.

The other results are listed elsewhere or left out.

The experiment deals with T1, OsWOX13 (Oryza sativa, UniProt Q5QMM3 1-267).
T1 sequence: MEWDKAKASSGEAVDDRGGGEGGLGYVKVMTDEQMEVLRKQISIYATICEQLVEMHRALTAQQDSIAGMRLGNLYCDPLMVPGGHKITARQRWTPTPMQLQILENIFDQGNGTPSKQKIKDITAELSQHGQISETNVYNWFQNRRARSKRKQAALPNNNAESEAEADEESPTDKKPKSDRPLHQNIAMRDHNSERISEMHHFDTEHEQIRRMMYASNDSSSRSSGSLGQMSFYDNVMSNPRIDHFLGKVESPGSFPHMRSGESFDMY
In words: protein-binding microarray (RPBM); PBS, 2% BSA, 51.3 ng/ul salmon testes DNA, 50 uM zinc acetate, 200 nM TF, 25 C, 1 h; high values mean tight binding. To be noted: protein: recombinant; tags: N-terminal polyhistidine and DsRed monomer fusion (pET32a); label: CyDye5-dUTP incorporated in the synthesized complementary strand; 3' TTTTT single-stranded linker to array surface; dsDNA, one strand shown. An outline of the steps: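 Binding signal is reported as fluorescence intensity per feature (arbitrary units) from an Axon 4000B scanner. Incubation used 200 nM of each Ni–NTA-purified, N-terminally polyhistidine- and DsRed-fused transcription factor from E. coli BL21-CodonPlus on a double-stranded custom Agilent array for 1 h at 25 °C, with 50 µM zinc acetate in the buffer, followed by washing.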
For the sequence “TAGACTAATCATGAATCAATTAGGCTCAATAGATTCGTCTCGGAGTCACCTAGTGCAG”, the binding signal was 30800 fluorescence intensity (a.u.).
As to “TATCTATCAAATCCAAACAGCTACTAAATTAAATATATCCCGGAGTCACCTAGTGCAG”, the binding signal was 3460 fluorescence intensity (a.u.).
To “ATATATATATATATATATATTACTAGTTAACGTACTTAGTCGGAGTCACCTAGTGCAG” belongs 15700 fluorescence intensity (a.u.).
Turning to “TCCGTAGTTGATTAGTACTAGTTCGACCAGTAGTTTCGCCCGGAGTCACCTAGTGCAG”, the binding signal was 34900 fluorescence intensity (a.u.).
“AAATATAATAAATTTAATGTTAACATATTTTACACGTAAGCGGAGTCACCTAGTGCAG”: the binding signal is 8420 fluorescence intensity (a.u.).
To “CGAGATTAGTTTAGTTGCTATCTTGTTTGTTCTCCCTTTGCGGAGTCACCTAGTGCAG” belongs 6430 fluorescence intensity (a.u.); to “TATTATAAATTTCTAAATTACATTATGATTTTAGTGTATTCGGAGTCACCTAGTGCAG”, 9930 fluorescence intensity (a.u.).
“TATTTGCGGTACCAAGTGATTGACACTCCAGGGATCCTTGCGGAGTCACCTAGTGCAG”: the binding signal was 11900 fluorescence intensity (a.u.).
Take “ACATTAATTAATTAGAAGAATTAACATATACAAACAAAATCGGAGTCACCTAGTGCAG”: the binding signal was 13200 fluorescence intensity (a.u.).
With “CTTACGTGTAAATTGAAATTACATTGTAATTTACATTTGACGGAGTCACCTAGTGCAG”, the binding signal is 34200 fluorescence intensity (a.u.).
In the case of “ACTAATTTCATAACTCGCCTGGAAACCGCGAGACGAATCTCGGAGTCACCTAGTGCAG”, the binding signal is 5910 fluorescence intensity (a.u.).
The same measure for “TTACTAATTTTGGCTCATATTTCCAACACTAGGATGGTATCGGAGTCACCTAGTGCAG”: 6960 fluorescence intensity (a.u.); for “GCTCAAATCAATTGTCTTATTATCGATTAAAAGGAGAAAACGGAGTCACCTAGTGCAG”: 5660 fluorescence intensity (a.u.).
To “CACCAAATTGTGCTAATCCTTGGCAGAACAGCTATGATGTCGGAGTCACCTAGTGCAG” belongs 5430 fluorescence intensity (a.u.); to “CCTGATTGATGAAGAGCATGTTAAGTTCAGCAACATTCCTCGGAGTCACCTAGTGCAG”, 50800 fluorescence intensity (a.u.).
Take “CAAACTTTTGATTTGCGTGTATGGATTTATGTATCTCCAACGGAGTCACCTAGTGCAG”: the binding signal is 10600 fluorescence intensity (a.u.).
To “CTCGTGATCAATCTCCACAAAACTATATTTGTTGAAATGACGGAGTCACCTAGTGCAG” belongs 5590 fluorescence intensity (a.u.); to “GTTCGATTGGATCTGGGATTTATGCGACGACATGGTTTGACGGAGTCACCTAGTGCAG”, 5040 fluorescence intensity (a.u.).
To “CCAATTACTGATAATACGTCCAATTATACGTCAAATGGCGCGGAGTCACCTAGTGCAG” belongs 9400 fluorescence intensity (a.u.).
Regarding “ATTGATGGAGGATATTCACTTGAAGGACTTACAAATGATCCGGAGTCACCTAGTGCAG”, the binding signal was 6290 fluorescence intensity (a.u.).
To “TTGATTAGAGAACTCTCTCTCTCTACCTGATTCGATTCGCCGGAGTCACCTAGTGCAG” belongs 16600 fluorescence intensity (a.u.); to “TTTTAATCAATGGAAAGTAATTACTGTAAATTGTTTGACACGGAGTCACCTAGTGCAG”, 22700 fluorescence intensity (a.u.).
To “TGATTTAATTTGGGCATGGGTGGCCGAGTAGATCATTTTGCGGAGTCACCTAGTGCAG” belongs 4320 fluorescence intensity (a.u.); to “TAGTTTAATTAGCTTAAGAACACGCCTTGTAGAGTGCTATCGGAGTCACCTAGTGCAG”, 14800 fluorescence intensity (a.u.); to “GGTGCTATAACTGGTAATAATTTGCTTAGCTCCTGGTTTGCGGAGTCACCTAGTGCAG”, 13100 fluorescence intensity (a.u.).
To “CATAATATTTAATTAAACTAATTTAATGTTGTGAATATTACGGAGTCACCTAGTGCAG” belongs 17700 fluorescence intensity (a.u.).
For “TATACGTATGATTTATCGTATTAGAATATATTATATCCGGCGGAGTCACCTAGTGCAG”, the binding signal was 3850 fluorescence intensity (a.u.).
For the sequence “ATTATAACTGGTAATGGCCATTACCTGCCTTCACATTGCTCGGAGTCACCTAGTGCAG”, the binding signal is 8450 fluorescence intensity (a.u.).
To “TGGGGTTGTGCCAATCAAGCCCACTGATACATTGTTGTTCCGGAGTCACCTAGTGCAG” belongs 6360 fluorescence intensity (a.u.); to “ATAAATAATAAATTCCAATTTCCAAACCCAAACCAAACCACGGAGTCACCTAGTGCAG”, 8090 fluorescence intensity (a.u.); to “AGGACATAATTTTAATGGGGAAATTGGTTCCATACCATCTCGGAGTCACCTAGTGCAG”, 20500 fluorescence intensity (a.u.).
The same measure for “TAGTGATTTTGTGAAATCTCAAAATATATTGATCCAGCTTCGGAGTCACCTAGTGCAG”: 5030 fluorescence intensity (a.u.); for “GTACATCAAATTTTAAGATAATCAAAACAAAGATGAACACCGGAGTCACCTAGTGCAG”: 4180 fluorescence intensity (a.u.); for “ATCCTTAATCACATCACCATAAGATAGAGGTGATAAAGGACGGAGTCACCTAGTGCAG”: 3720 fluorescence intensity (a.u.).
Take “GTGCATTATCGATCATAATTAGCAGGTGAGAGATATTTAACGGAGTCACCTAGTGCAG”: the binding signal is 4060 fluorescence intensity (a.u.).
With “TTCTCTGGATTAATTGACGGGTCGTCTGGCTGGATTAGTGCGGAGTCACCTAGTGCAG”, the binding signal is 27200 fluorescence intensity (a.u.).
Take “ATTAATGGAATAAGTTCACTTTGGGTCCCTCTATTTGTAGCGGAGTCACCTAGTGCAG”: the binding signal is 12000 fluorescence intensity (a.u.).
The same measure for “CCGATCAAGATTGCCATTTCAACCTAATACAGTTAACTAGCGGAGTCACCTAGTGCAG”: 9120 fluorescence intensity (a.u.); for “GAAATAATTAATCAATTAACGCTGATGTGTGAGCTGCGTACGGAGTCACCTAGTGCAG”: 53800 fluorescence intensity (a.u.); for “TTTTATATTTAAATCATCATTCTGCATACTATTTAAATTTCGGAGTCACCTAGTGCAG”: 3200 fluorescence intensity (a.u.).
To “GAAACATCTTTAACTGGTAGGTGACATCACCAATAGTGAGCGGAGTCACCTAGTGCAG” belongs 3160 fluorescence intensity (a.u.); to “GATTAAGTGATTAAGCAAGATTGTCGTCTGTTAAGCAAGACGGAGTCACCTAGTGCAG”, 16500 fluorescence intensity (a.u.).
The same measure for “ACTTAATTGCCGGCTATAAAATGAACTATTTGCCGGGAATCGGAGTCACCTAGTGCAG”: 26800 fluorescence intensity (a.u.).
Consider “GACTAATTAGTCTCAAAAGATTTGTCTCGCGATTTTCATACGGAGTCACCTAGTGCAG”, for which the binding signal is 28800 fluorescence intensity (a.u.).
The same measure for “TCAACAGATTGGCACGCGTACGCACACTTCAAATGTTAATCGGAGTCACCTAGTGCAG”: 12300 fluorescence intensity (a.u.).
Regarding “GCCCTTAATAGAATTATGCAAGACAAGACCACGATTGTAGCGGAGTCACCTAGTGCAG”, the binding signal is 11300 fluorescence intensity (a.u.).
The same measure for “ATAATTGGCATAGTATATTCTAGGCCCTTGAGGAAACTCCCGGAGTCACCTAGTGCAG”: 13600 fluorescence intensity (a.u.); for “TTTAAGATAAATTAAACTCTAGAAATAGATACATTATCGGCGGAGTCACCTAGTGCAG”: 3360 fluorescence intensity (a.u.); for “TCATCGGCCGCCGCTGTGATTGGGATGGTTGACGGGAAGGCGGAGTCACCTAGTGCAG”: 4780 fluorescence intensity (a.u.).
As for “TCTCTTACTCTTGTTGATTGACACCGGTCATCAGTAGTTCCGGAGTCACCTAGTGCAG”, the binding signal is 43200 fluorescence intensity (a.u.).
Take “ATTGTAACTACTTCATAATTGGGATATTGATACCTTCCATCGGAGTCACCTAGTGCAG”: the binding signal is 14300 fluorescence intensity (a.u.).
For “ATACTTGACAGGTTTTATGCATATAAGAAAATCTGTTTAACGGAGTCACCTAGTGCAG”, the binding signal is 7520 fluorescence intensity (a.u.).
As to “CACATGGCCTTGATTAGCGCTGAGGTTATAGTAGGTTAGACGGAGTCACCTAGTGCAG”, the binding signal is 5980 fluorescence intensity (a.u.).
The same measure for “GCTGTTAAAGTTGATCTTAATTGACATATAAAATCGACCCCGGAGTCACCTAGTGCAG”: 17600 fluorescence intensity (a.u.).
